The campaign covered roughly 45,000 compounds. About 200 (0.44%) were called active. Inconclusive results (about 7%) are left out. The call rests on the fitted dose curve; in most records, active means well fitted activation curve with a large enough effect; inconclusive means small, poorly fitted or top-dose-only effect; inactive means no such curve, though single readings can be large or run the other way. This is one part of the list.
Assay: qHTS of TDP-43 Inhibitors: NCGC Sytravon Library Screen; further: 0% is about no effect; nearly all actives have a fitted effect of over 55% in size
Details: yeast TDP-43 toxicity rescue, BacTiter-Glo growth, 24 h; series mostly up to 46.1 µM; growth rescue (activation): at the top concentration
How it was run: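 TDP-43-expressing yeast, pregrown in raffinose, seeded at OD600 0.02 in galactose medium with compound for 24 hr at 30 deg C. Growth read by BacTiter-Glo luminescence, so rescue of toxicity appears as activation.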
With `CSc1nc(C)c2c(n1)N(c1ccc(F)cc1)CC2` the “growth rescue (activation)” value was inactive: 42%. For `CC(=O)Nc1ccccc1C(=O)C(=O)Nc1cccc(C(=O)NCc2ccccc2)c1`, the “growth rescue (activation)” value was inactive: 12.3%. For `CC(NC(=O)/C=C/c1ccco1)c1nc2ccccc2n1Cc1cccc(Cl)c1` (centres undefined), the “growth rescue (activation)” value was inactive: -8.8%. With `COc1ccc(NC(=O)Nc2ccc(CC(=O)O)cc2)cc1` the “growth rescue (activation)” value was inactive: -6.14%. With `Cc1ccc(C(=O)N/N=C2\CC3CC=CC23)c(C)c1` (centres undefined) the “growth rescue (activation)” value was inactive: 2.44%. In the case of `Cc1sc(NC(=O)c2ccco2)c(C(=O)c2ccc(Cl)cc2)c1C`, the “growth rescue (activation)” value is reported as inactive: 10.5%. With `CN(C)CCn1nnc2c(=O)oc3ccccc3c21` the “growth rescue (activation)” value was inactive: 13.2%. With `Cn1c(SCC(=O)Nc2ccccc2)nnc1C(F)(F)F` the “growth rescue (activation)” value was inactive: 5.44%. With `O=C(NCc1ccc(F)cc1)C(c1cccnc1)N(C(=O)c1csnn1)c1ccccc1` (centres undefined) the “growth rescue (activation)” value was inactive: -9.02%. In the case of `CCOC(=O)CC1C(=O)NCCN1C(=O)COc1ccc(C(C)(C)C)cc1` (centres undefined), the “growth rescue (activation)” value is reported as inactive: 2.59%. In the case of `Nc1nc(O)c(Sc2ccccc2[N+](=O)[O-])c(=O)[nH]1`, the “growth rescue (activation)” value is reported as inactive: 2.63%. For `COc1ccc(CCC(=O)NCCCNC(=O)CCc2ccc(OC)cc2)cc1`, the “growth rescue (activation)” value was inactive: 14.7%. For `COc1cc(Br)cc(C=Nc2cccc(C(F)(F)F)c2)c1O`, the “growth rescue (activation)” value was inactive: 20.4%. In the case of `NC(=O)c1ccccc1OCC(=O)N1CCc2ccccc2C1`, the “growth rescue (activation)” value is reported as inactive: 3.84%. In the case of `O=[N+]([O-])c1ccc(N2CCN(S(=O)(=O)c3ccc4ccccc4c3)CC2)cc1NCC1CCCO1` (centres undefined), the “growth rescue (activation)” value is reported as inactive: 5.19%. For `NC(Cc1ccc(C(F)(F)F)cc1)c1csc(NC(=O)NCCc2ccccc2)n1` (centres undefined), the “growth rescue (activation)” value was inactive: 12.7%. With `Cc1ccc(S(=O)(=O)Nc2cnn(-c3ccccc3)c(=O)c2Cl)cc1` the “growth rescue (activation)” value was inactive: -21.9%. For `CCOC(=O)C1CCN(C2=C(NS(=O)(=O)c3ccc(Cl)cc3)C(=O)c3ccccc3C2=O)CC1`, the “growth rescue (activation)” value was inactive: -17.1%. For `CC1(C)CC(=O)c2c(oc3ccc(NS(=O)(=O)c4cccc5cccnc45)cc23)C1`, the “growth rescue (activation)” value was inactive: 18.1%. For `Cc1nc(Nc2ccc(C(=O)O)cc2)nc(Nc2ccc(C(=O)O)cc2)c1[N+](=O)[O-]`, the “growth rescue (activation)” value was inactive: 6.53%. In the case of `O=C(CSCc1ccc(Cl)cc1)Nc1cc([N+](=O)[O-])ccc1O`, the “growth rescue (activation)” value is reported as inactive: -35.3%. In the case of `COC(CNC(=O)c1ccc2c(c1)ncn2-c1cc(C)cc(C)c1)OC`, the “growth rescue (activation)” value is reported as inactive: 2.65%. In the case of `O=[N+]([O-])c1ccc(Nc2ccccn2)c([N+](=O)[O-])c1`, the “growth rescue (activation)” value is reported as inactive: 7.32%. For `O=C(CO/N=C/c1ccc(OC(F)F)cc1)NC1CCCC1`, the “growth rescue (activation)” value was inactive: 5.13%. In the case of `Cc1cc2nc(CSc3ccc(Cl)cc3)cc(=O)n2[nH]1`, the “growth rescue (activation)” value is reported as inactive: 0.556%. For `CN(c1ccccc1C(=O)Nc1ccc(F)c(Cl)c1)S(C)(=O)=O`, the “growth rescue (activation)” value was inactive: 11.2%. In the case of `Cc1cc(NC(=O)CSc2nnnn2-c2ccc(C)c(Cl)c2)no1`, the “growth rescue (activation)” value is reported as inactive: -9.81%. With `CCn1c(SCC(=O)NCCc2ccccc2)nnc1C(C)C` the “growth rescue (activation)” value was inactive: -1.26%. In the case of `O=c1oc2cc(O[C@@H]3OC[C@@H](O)[C@H](O)[C@H]3O)ccc2c2ccccc12`, the “growth rescue (activation)” value is reported as inactive: 8.99%.

From PubChem BioAssay AID1347073 (National Center for Advancing Translational Sciences (NCATS), 2019)
